Measurements reported in the supplement of paper PMC8728848.
The other results are listed elsewhere or left out.

What was measured:
Assay in all cases: glycan array binding signal (z-score within array); higher = stronger binding
Conditions in all cases: glycan notation: IUPAC condensed, linker removed
[1] = target: GalNAc(b1-4)GlcNAc(b1-2)Man
Outline: (§1)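 The binding signal is a Z-score computed within each array and averaged over linkers. Arrays of the same protein sequence at different concentrations or buffers were also averaged together. Data originate from 3228 arrays in the Consortium for Functional Glycomics database, kept only where the protein sequence was available.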

[2] = target: GalNAc(b1-4)GlcNAc(b1-2)Man(a1-3)[GalNAc(b1-4)GlcNAc(b1-2)Man(a1-6)]Man(b1-4)GlcNAc(b1-4)GlcNAc
Outline: as §1

[3] = target: GalNAc(b1-4)GlcNAc(b1-3)GalNAc(b1-4)GlcNAc
Outline: as §1

GalNAc(b1-4)GlcNAc6S = target: GalNAc(b1-4)GlcNAc6S
Outline: as §1

GalNAc(b1-6)GalNAc = target: GalNAc(b1-6)GalNAc
Outline: as §1

GalNAc3S(b1-4)GlcNAc = target: GalNAc3S(b1-4)GlcNAc
Outline: as §1

GalNAc3S(b1-4)GlcNAc3S = target: GalNAc3S(b1-4)GlcNAc3S
Outline: as §1

[4] = target: GalNAc3S(b1-4)[Fuc(a1-3)]GlcNAc
Outline: as §1

GalNAc4S6S(b1-4)GlcNAc = target: GalNAc4S6S(b1-4)GlcNAc
Outline: as §1

GalNAc6S(b1-4)GlcNAc = target: GalNAc6S(b1-4)GlcNAc
Outline: as §1

Glc(a1-4)Glc = target: Glc(a1-4)Glc
Outline: as §1

[5] = target: Glc(a1-4)Glc(a1-4)Glc(a1-4)Glc
Outline: as §1

Glc(a1-6)Glc(a1-6)Glc = target: Glc(a1-6)Glc(a1-6)Glc
Outline: as §1

[6] = target: Glc(a1-6)Glc(a1-6)Glc(a1-6)Glc
Outline: as §1

Glc(b1-4)Glc = target: Glc(b1-4)Glc
Outline: as §1

Glc(b1-6)Glc = target: Glc(b1-6)Glc
Outline: as §1

GlcA(b1-3)Gal = target: GlcA(b1-3)Gal
Outline: as §1

GlcA(b1-3)GlcNAc = target: GlcA(b1-3)GlcNAc
Outline: as §1

GlcA(b1-6)Gal = target: GlcA(b1-6)Gal
Outline: as §1

[7] = target: GlcA3S(b1-3)Gal(b1-4)GlcNAc(b1-2)Man
Outline: as §1

[8] = target: GlcA3S(b1-3)Gal(b1-4)GlcNAc(b1-3)Gal(b1-4)Glc
Outline: as §1

[9] = target: GlcNAc(a1-3)Gal(b1-4)GlcNAc
Outline: as §1

[10] = target: GlcNAc(a1-4)Gal(b1-3)GlcNAc
Outline: as §1

[11] = target: GlcNAc(a1-4)Gal(b1-4)GalNAc
Outline: as §1

[12] = target: GlcNAc(a1-4)Gal(b1-4)GlcNAc
Outline: as §1

[13] = target: GlcNAc(a1-4)Gal(b1-4)GlcNAc(b1-3)Gal(b1-4)Glc
Outline: as §1

[14] = target: GlcNAc(a1-4)Gal(b1-4)GlcNAc(b1-3)Gal(b1-4)GlcNAc
Outline: as §1

[15] = target: GlcNAc(a1-4)Gal(b1-4)GlcNAc(b1-3)Gal(b1-4)GlcNAc(b1-3)Gal(b1-4)GlcNAc
Outline: as §1

[16] = target: GlcNAc(a1-4)Gal(b1-4)GlcNAc(b1-3)Gal(b1-4)[Fuc(a1-3)]GlcNAc(b1-3)Gal(b1-4)[Fuc(a1-3)]GlcNAc
Outline: as §1

[17] = target: GlcNAc(a1-6)Gal(b1-4)GlcNAc
Outline: as §1

B1: Pa IMPa (Pseudomonas aeruginosa), Q9I5W4 (protein)
chain: MSLSTTAFPSLQGENMSRSPIPRHRALLAGFCLAGALSAQAATQEEILDAALVSGDSSQLTDSHLVALRLQQQVERIRQTRTQLLDGLYQNLSQAYDPGAASMWVLPANPDNTLPFLIGDKGRVLASLSLEAGGRGLAYGTNVLTQLSGTNAAHAPLLKRAVQWLVNGDPGAATAKDFKVSVVGVDKTAALNGLKSAGLQPADAACNALTDASCASTSKLLVLGNGASAASLSATVRARLQAGLPILFVHTNGWNQSSTGQQILAGLGLQEGPYGGNYWDKDRVPSSRTRTRSVELGGAYGQDPALVQQIVDGSWRTDYDWSKCTSYVGRTTCDDVPGLSDFSKRVDVLKGALDAYNQKAQNLFALPGTTSLRLWLLWADAVRQNIRYPMDKAADTARFQETFVADAIVGYVREAGAAQKELGSYAGQRQQSMPVSGSEETLTLTLPSAQGFTAIGRMAAPGKRLSIRIEDAGQASLAVGLNTQRIGSTRLWNTRQYDRPRFLKSPDIKLQANQSVALVSPYGGLLQLVYSGATPGQTVTVKVTGAASQPFLDIQPGEDSSQAIADFIQALDADKADWLEIRSGSVEVHAKVEKVRGSIDKDYGGDVQRFIRELNEVFIDDAYTLAGFAIPNQAKTPAIQQECAARGWDCDSETLHKLPGTQHINVDQYAQCGGGCSGNPYDQTWGLNPRGWGESHELGHNLQVNRLKVYGGRSGEISNQIFPLHKDWRVLREFGQNLDDTRVNYRNAYNLIVAGRAEADPLAGVYKRLWEDPGTYALNGERMAFYTQWVHYWADLKNDPLQGWDIWTLLYLHQRQVDKSDWDANKAALGYGTYAQRPGNSGDASSTDGNDNLLLGLSWLTQRDQRPTFALWGIRTSAAAQAQVAAYGFAEQPAFFYANNRTNEYSTVKLLDMSQGSPAWPFP
With B1 the “glycan array binding signal (z-score)” value [1] was 0.357, the “glycan array binding signal (z-score)” value [2] was -0.382 and the “glycan array binding signal (z-score)” value [3] was -0.197. For the same binder, the “glycan array binding signal (z-score)” value (GalNAc(b1-4)GlcNAc6S) was -0.239, the “glycan array binding signal (z-score)” value (GalNAc(b1-6)GalNAc) was -0.401 and the “glycan array binding signal (z-score)” value (GalNAc3S(b1-4)GlcNAc) was -0.398. For the same binder, the “glycan array binding signal (z-score)” value (GalNAc3S(b1-4)GlcNAc3S) was 0.008, the “glycan array binding signal (z-score)” value [4] was -0.267 and the “glycan array binding signal (z-score)” value (GalNAc4S6S(b1-4)GlcNAc) was 1.48. The “glycan array binding signal (z-score)” value (GalNAc6S(b1-4)GlcNAc) was -0.463, the “glycan array binding signal (z-score)” value (Glc(a1-4)Glc) was -0.441 and the “glycan array binding signal (z-score)” value [5] was 0.634. The “glycan array binding signal (z-score)” value (Glc(a1-6)Glc(a1-6)Glc) was -0.304, the “glycan array binding signal (z-score)” value [6] was 0.853 and the “glycan array binding signal (z-score)” value (Glc(b1-4)Glc) was -0.058. For the same binder, the “glycan array binding signal (z-score)” value (Glc(b1-6)Glc) was -0.442, the “glycan array binding signal (z-score)” value (GlcA(b1-3)Gal) was -0.387 and the “glycan array binding signal (z-score)” value (GlcA(b1-3)GlcNAc) was -0.276. The “glycan array binding signal (z-score)” value (GlcA(b1-6)Gal) was -0.196, the “glycan array binding signal (z-score)” value [7] was 0.072 and the “glycan array binding signal (z-score)” value [8] was 0.054. For the same binder, the “glycan array binding signal (z-score)” value [9] was 0.061, the “glycan array binding signal (z-score)” value [10] was -0.128 and the “glycan array binding signal (z-score)” value [11] was 0.088. The “glycan array binding signal (z-score)” value [12] was 3.49, the “glycan array binding signal (z-score)” value [13] was 0.308 and the “glycan array binding signal (z-score)” value [14] was -0.321. The “glycan array binding signal (z-score)” value [15] was -0.003, the “glycan array binding signal (z-score)” value [16] was 0.66 and the “glycan array binding signal (z-score)” value [17] was -0.364.
